# Data reported in PubChem BioAssay AID1468 (National Center for Advancing Translational Sciences (NCATS), 2008).
# Out of some 280,000 compounds screened, about 1,100 (0.39%) were called active. This list was built around the results that the source calls inconclusive (neither active nor inactive); the mix of calls is not that of the screen. Calls follow the shape of the dose curve; as a rule, active = well fitted inhibition curve with a large enough effect; inconclusive = small, poorly fitted or top-dose-only effect, or effect the other way; inactive = flat fitted curve, though single readings scatter. No potency is given beside an inconclusive call; the fits are too rough.
# Molecular target: Microtubule-associated protein tau (Homo sapiens) (UniProt P10636)
# Assay: qHTS for Inhibitors of Tau Fibril Formation, Fluorescence Polarization; also: nearly all actives have a fitted effect of over 55% in size
# Conditions: K18 P301L tau heparin fibrillization, Alexa594 FP, 6 h; series mostly up to 57.7 µM
# Outline: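 Compound effects on tau fibrillization are measured by Alexa 594 fluorescence polarization (ex 555, em 632 nm). K18 P301L tau is used at 15 uM with 0.24 uM labeled tracer, and 20 uM heparin induces aggregation over 6 hr at 37 C.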
# Potency is read from the fitted curve at half-maximal effect; tags tell the direction and shape of the fitted curve.
# UniProt P10636, sequence (P10636 whole entry, looked up): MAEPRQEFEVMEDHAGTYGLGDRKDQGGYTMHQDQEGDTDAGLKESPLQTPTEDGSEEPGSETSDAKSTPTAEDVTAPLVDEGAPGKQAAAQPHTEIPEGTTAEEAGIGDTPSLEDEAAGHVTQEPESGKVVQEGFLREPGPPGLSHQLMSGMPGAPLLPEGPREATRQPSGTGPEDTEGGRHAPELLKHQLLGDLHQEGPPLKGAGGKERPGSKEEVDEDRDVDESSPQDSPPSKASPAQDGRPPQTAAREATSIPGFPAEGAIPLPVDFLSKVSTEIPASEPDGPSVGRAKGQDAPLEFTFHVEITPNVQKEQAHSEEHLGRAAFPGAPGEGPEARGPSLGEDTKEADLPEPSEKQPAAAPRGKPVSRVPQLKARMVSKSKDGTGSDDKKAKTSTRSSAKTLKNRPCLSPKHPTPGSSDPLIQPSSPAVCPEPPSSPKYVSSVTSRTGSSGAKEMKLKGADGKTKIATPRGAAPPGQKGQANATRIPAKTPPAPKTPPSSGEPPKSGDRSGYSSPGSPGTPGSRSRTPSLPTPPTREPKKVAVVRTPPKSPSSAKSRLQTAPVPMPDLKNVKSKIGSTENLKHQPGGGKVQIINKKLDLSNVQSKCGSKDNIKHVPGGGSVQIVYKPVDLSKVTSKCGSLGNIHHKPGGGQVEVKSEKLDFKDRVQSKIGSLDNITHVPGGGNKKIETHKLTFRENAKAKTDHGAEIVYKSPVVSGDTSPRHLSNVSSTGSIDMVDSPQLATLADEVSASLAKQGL
row,Structure (SMILES),Potency
1,C#CCNC(=O)C1=C[C@@H](C2CCCCC2)C[C@@H](OCc2ccc(CO)cc2)O1,"inconclusive [activator, single point]"
2,O=C(COC(=O)CCSc1ccc(Cl)cc1)Nc1ccc(F)cc1,"inconclusive [inhibitor, single point]"
3,O=C(CC1S/C(=N/N=C/c2cccs2)NC1=O)Nc1ccc(Cl)c(Cl)c1 (configuration not stated),"inconclusive [inhibitor, partial curve]"
4,Cc1cccc(NS(=O)(=O)c2cc(C(=O)NCCC3=CCCCC3)ccc2Cl)c1,"inconclusive [inhibitor, single point]"
5,O=C(Nc1ccc(F)c(F)c1)c1cc(S(=O)(=O)NCc2ccc3c(c2)OCO3)ccc1F,"inconclusive [inhibitor, partial curve]"
6,Cc1ccc(OCC(=O)N/N=C/c2ccc3c(c2)OCO3)cc1C,"inconclusive [inhibitor, single point]"
7,COc1ccc(C2=NC3(CCCCCC3)N(CC(=O)Nc3cccc(Cl)c3)C2=O)cc1,"inconclusive [inhibitor, single point]"
8,Cc1cccc2c(=O)cc(C)n(Cc3ccccc3)c12,"inconclusive [inhibitor, full curve, poor fit]"
9,Cc1[nH]c2ccccc2c1C(O)c1ccncc1 (configuration not stated),inactive
10,COc1ccc(-c2c(C#N)c(SCC(=O)Nc3ccc(C)cc3)nc(C)c2C(=O)Nc2ccccc2)cc1,"inconclusive [inhibitor, partial curve]"
11,NC(=O)NC(=O)COC(=O)c1ccc(Cl)c(S(=O)(=O)N(Cc2ccccc2)c2ccc(Cl)cc2)c1,active: 11.2 µM
12,COc1ccccc1OCc1ccc(C(=O)N(C)C)o1,"inconclusive [inhibitor, single point]"
13,CC1CCN(c2ccc(-c3cccc(NS(=O)(=O)c4cccs4)c3)nn2)CC1,"inconclusive [inhibitor, partial curve, poor fit]"
14,CC1CC1C(=O)OCC(=O)Nc1ccccc1Oc1ccccc1 (configuration not stated),inactive
15,O=C(O)CC1CCC(=C(Cl)Cl)C1 (configuration not stated),"inconclusive [inhibitor, single point]"
16,CS(=O)(=O)N(CC(=O)Nc1ccc(CC#N)cc1)c1ccc(C23CC4CC(CC(C4)C2)C3)cc1,"inconclusive [inhibitor, full curve]"
17,CCc1ccc(S(=O)(=O)/N=C2/C=C(Sc3ncn[nH]3)C(=O)c3ccccc32)cc1,active: 11.2 µM
18,CCOC(=O)C(NS(=O)(=O)c1ccccc1)(C(F)(F)F)P(=O)(OCC(C)C)OCC(C)C (configuration not stated),"inconclusive [inhibitor, single point]"
19,S=c1[nH]cnc2scc(-c3ccc(Br)cc3)c12,inactive
20,O=C(CC1C(=O)N(c2ccccc2)C(=S)N1c1ccccc1)c1ccc(Br)cc1 (configuration not stated),"inconclusive [inhibitor, full curve]"
21,Cc1ccc(NC(=O)C(OC(=O)c2ccccc2Cl)c2ccccc2)cc1Cl (configuration not stated),"inconclusive [inhibitor, full curve, poor fit]"

row,Structure (SMILES),Potency
1,O=C(CCNc1ccc(Cc2ccncc2)cc1)c1cccc([N+](=O)[O-])c1,"inconclusive [activator, single point]"
2,O=C(Cc1c(Cl)cccc1Cl)Nc1cccc(S(=O)(=O)N2CCOCC2)c1,inactive
3,CCOC(=O)c1c(NC(=O)COc2cccc(C(F)(F)F)c2)sc2c1CCCCC2,inactive
4,CC(C)COc1ccc(C(=O)N2CCN(CCc3ccccn3)CC2)cc1,inactive
5,COc1cccc(C2c3c(-c4ccccc4O)n[nH]c3C(=O)N2CCc2ccc(OC)c(OC)c2)c1 (configuration not stated),"inconclusive [inhibitor, single point]"
6,Clc1cccc(-c2nc(NCc3cccnc3)c3ccccc3n2)c1,"inconclusive [inhibitor, partial curve]"
7,N/C(=N\OC(=O)CCC1CCCC1)c1cccnc1,inactive
8,CSc1ccc(CCNC(=O)CCc2c(C)nc3cc(-c4ccccc4)nn3c2C)cc1,"inconclusive [inhibitor, single point]"
9,CCc1cc2c(NCc3ccco3)ncnc2s1,inactive
10,O=C(Nc1c(C(=O)Nc2cccc(F)c2)oc2ccccc12)c1cc2ccccc2o1,"inconclusive [inhibitor, partial curve]"
11,COc1ccc(C2CC(=O)C=C(NCc3ccc4c(c3)OCO4)C2)cc1 (configuration not stated),inactive
12,Cc1c(Nc2cc(Cl)c3nonc3c2[N+](=O)[O-])c(=O)n(-c2ccccc2)n1C,"inconclusive [inhibitor, partial curve]"
13,CCN1c2cc(C)ccc2-n2cccc2C12CCN(C(=O)Nc1cc(OC)c(OC)c(OC)c1)CC2,"inconclusive [activator, single point]"
14,Nc1ccccc1Sc1nc2ccccc2[nH]1,"inconclusive [inhibitor, single point]"
15,CC(=O)Nc1cccc(NC(=O)Nc2ccc(C(C)=O)cc2)c1,inactive
16,Cc1ccc(S(=O)(=O)c2nc(-c3ccco3)oc2SCc2ccccc2Cl)cc1,"inconclusive [inhibitor, full curve, poor fit]"
17,CCOC(=O)c1c(NC(=O)c2ccc(S(=O)(=O)N3CCCC(C)C3)cc2)sc2c1CCN(C(C)C)C2 (configuration not stated),"inconclusive [inhibitor, partial curve, poor fit]"
18,Cc1ccc2oc3c(c(=O)c2c1)C(c1cccc(O)c1)N(Cc1ccccc1Cl)C3=O (configuration not stated),"inconclusive [inhibitor, partial curve, poor fit]"
19,CC(C)c1ccc2oc(-c3cccc(NC(=O)c4ccc5c(c4)OCCO5)c3)nc2c1,"inconclusive [inhibitor, partial curve]"
20,O=c1oc2ccccc2cc1-c1nc(-c2cccs2)cs1,"inconclusive [inhibitor, partial curve, poor fit]"
21,CCC(=O)Nc1ccc(-c2csc(NNC(C)=O)n2)cc1,"inconclusive [inhibitor, single point]"
